The campaign covered roughly 350,000 compounds. About 31,000 (8.9%) were called active. The inconclusive results got no clear call from the source; some entries with a clear call stand among them for comparison. The call rests on the fitted dose curve; in most records, active means well fitted inhibition curve with a large enough effect; inconclusive means small, poorly fitted or top-dose-only effect; inactive means no such curve, though single readings can be large or run the other way. Where the call is inconclusive, the potency comes from a doubtful curve fit.
molecular target: Histone-lysine N-methyltransferase EHMT2 (Homo sapiens) (UniProt Q96KQ7); experiment: qHTS Assay for Inhibitors of Histone Lysine Methyltransferase G9a; conditions: G9a H3K9 monomethylation, AlphaScreen, 2 h; activity, negative = inhibition: at 59 µM (top of the series) unless noted; further: nearly all actives have a fitted effect of over 75% in size
Chain of UniProt Q96KQ7 (Q96KQ7 whole entry, looked up): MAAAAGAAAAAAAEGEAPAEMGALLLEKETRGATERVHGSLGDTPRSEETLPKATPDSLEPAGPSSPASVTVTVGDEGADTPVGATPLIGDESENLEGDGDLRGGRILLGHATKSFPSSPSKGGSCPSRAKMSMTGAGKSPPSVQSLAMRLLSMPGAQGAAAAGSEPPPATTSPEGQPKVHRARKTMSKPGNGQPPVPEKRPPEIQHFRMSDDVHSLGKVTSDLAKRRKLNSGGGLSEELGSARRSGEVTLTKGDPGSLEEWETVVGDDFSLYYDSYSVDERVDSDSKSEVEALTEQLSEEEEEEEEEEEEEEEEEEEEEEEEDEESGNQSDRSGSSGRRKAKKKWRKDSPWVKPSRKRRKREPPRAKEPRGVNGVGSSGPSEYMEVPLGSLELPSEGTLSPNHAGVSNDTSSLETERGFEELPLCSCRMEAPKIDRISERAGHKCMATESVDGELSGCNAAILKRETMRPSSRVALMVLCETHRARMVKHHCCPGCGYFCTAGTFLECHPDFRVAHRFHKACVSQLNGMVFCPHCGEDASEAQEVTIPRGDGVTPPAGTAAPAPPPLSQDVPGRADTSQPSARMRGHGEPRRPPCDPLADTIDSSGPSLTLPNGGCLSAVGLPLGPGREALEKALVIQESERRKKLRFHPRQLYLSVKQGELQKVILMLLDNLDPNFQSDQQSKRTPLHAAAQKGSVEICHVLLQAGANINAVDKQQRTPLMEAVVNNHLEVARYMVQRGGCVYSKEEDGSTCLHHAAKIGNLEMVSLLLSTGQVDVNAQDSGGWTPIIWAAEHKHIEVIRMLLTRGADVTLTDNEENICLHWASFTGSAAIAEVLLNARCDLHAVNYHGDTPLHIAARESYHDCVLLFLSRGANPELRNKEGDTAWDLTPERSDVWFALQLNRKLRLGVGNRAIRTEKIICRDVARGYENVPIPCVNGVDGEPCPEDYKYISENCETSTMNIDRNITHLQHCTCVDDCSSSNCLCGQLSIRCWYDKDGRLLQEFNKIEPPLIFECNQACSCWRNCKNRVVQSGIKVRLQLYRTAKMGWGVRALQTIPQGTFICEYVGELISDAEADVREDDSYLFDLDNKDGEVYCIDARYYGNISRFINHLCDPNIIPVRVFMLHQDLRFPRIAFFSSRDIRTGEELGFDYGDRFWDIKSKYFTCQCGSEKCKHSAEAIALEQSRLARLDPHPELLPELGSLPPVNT
Summary of the method: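 Chemiluminescent proximity detection of H3K9 monomethylation, read after 10 min bead incubation in the dark. Reaction: 20 nM G9a, 500 nM biotin-H3K9 peptide, 20 uM SAM cofactor, 2 h, room temperature, following 15 min enzyme-compound preincubation.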
On the % scale 0 is the no-effect control and ±100 the full control effect; potency means the concentration at half of the fitted maximal effect; tags describe the fitted curve by direction and shape.

Row | Compound | Potency | activity, negative = inhibition
1 | Cc1ccc2sc(C)[n+](CCCS(=O)(=O)[O-])c2c1 | inconclusive: 63.1 µM [inhibitor, partial curve, poor fit] | –
2 | CCCOc1ccc(/C=N/Nc2ccc(C(=O)O)cc2)c(OCCC)c1 | active: 39.8 µM | –
3 | COc1ccc(-c2cc(C(=O)N3CCN(S(=O)(=O)c4ccc(C)cc4)CC3)[nH]n2)cc1 | inconclusive: 79.4 µM [inhibitor, single point] | –
4 | COC(=O)c1cc2c(-c3ccccc3)cc3ccccn3c-2c1C(=O)OC | active: 12.6 µM | –
5 | O=C(Nc1cc2c(oc1=O)CCCC2=O)c1ccccc1 | – | inconclusive: -79.4% [inhibitor]
6 | CN1CCN(C(=O)c2ccc(CNS(=O)(=O)c3cccc(Cl)c3)cc2)CC1 | inconclusive: 79.4 µM [inhibitor, single point] | –
7 | CC1CCCN(CCC(=O)c2ccc(Br)cc2)C1 (stereo not given) | – | inconclusive: -123% [inhibitor] [at 12.7 µM]
8 | CCOC(=O)Nc1ccc2c(c1)N(C(=O)CCCl)c1ccccc1[S@]2=O | inconclusive: 79.4 µM [inhibitor, single point] | –
9 | O=C1C2C3C=CC([C@@H]2C(=O)N1C1CCCCC1)[C@H]1C(=O)N(C2CCCCC2)C(=O)C31 (stereo not given in full) | – | inactive: 50.6% [at 12.7 µM]
10 | COc1ccc(NC(=O)CN(C)CC(=O)NC2CCC(C)CC2)cc1 (stereo not given) | – | inactive: -41.8% [at 12.7 µM]
11 | Cc1ccc2nc3c(cc2c1)CN(Cc1ccco1)C(=NCC1CCCO1)S3 (stereo not given) | inconclusive: 20 µM [inhibitor, single point] | –
12 | COC(=O)CSc1nnc(-c2ccoc2C)n1-c1ccc(C)cc1 | inconclusive: 89.1 µM [inhibitor, single point] | –
13 | Cn1c(=O)c2c(nc(CN3CCc4ccccc4C3)n2CCCO)n(C)c1=O | active: 11.2 µM | –
14 | Cn1c(=O)c2c(nc(Sc3ccccc3N)n2C)n(C)c1=O | active: 10 µM | –
15 | COc1ccc(CCN(Cc2cc3cc(C)cc(C)c3nc2Cl)C(=O)C2CC2)cc1 | inconclusive: 35.5 µM [inhibitor, single point] | –
16 | CCOC(=O)Nc1ccc2c(c1)N(C(=O)CCN1CCOCC1)c1ccccc1S2=O (stereo not given) | inconclusive: 89.1 µM [inhibitor, single point] | –
17 | CC1=NN(Cc2ccccc2)C(=O)C1C(c1ccccc1)C(C#N)C#N (stereo not given) | inconclusive: 7.08 µM [inhibitor, single point] | –
18 | COc1ccc(-n2nc3c(c2NC(=O)c2ccc(Br)cc2)CS(=O)C3)cc1 (stereo not given) | inconclusive: 100 µM [inhibitor, single point] | –
19 | COc1cc(/C=N/Nc2ccc3ccccc3c2)ccc1OC(=O)c1ccco1 | active: 7.94 µM | –
20 | Cc1ccc(NC(=S)N2CCN(Cc3ccccc3)CC2)cc1 | – | inactive: 7.29%
21 | COc1ccccc1OCCCC(=O)Nc1nnc(C2CCCO2)s1 (stereo not given) | inconclusive: 89.1 µM [inhibitor, single point] | –
22 | Cc1ccc(NC(=O)Cn2cccc2)c(Br)c1 | inconclusive: 89.1 µM [inhibitor, single point] | –
23 | CCN(CC(=O)Nc1cc(Cl)ccc1C)C(=O)c1oc2ccc(OC)cc2c1C | inconclusive: 89.1 µM [inhibitor, single point] | –

Row | Compound | Potency | activity, negative = inhibition
24 | O=c1c2c3nc4ccccc4nc3n(Cc3ccccc3)c2ncn1Cc1ccco1 | inconclusive: 1.41 µM [inhibitor, full curve, poor fit] | –
25 | O=S(=O)(ON(c1ccccc1)S(=O)(=O)c1ccccc1)c1ccccc1 | – | inactive: -7.16%
26 | O=c1nc2n(c3ccc([N+](=O)[O-])cc13)CCCCC2 | – | inactive: 9.64% [at 102 µM]
27 | O=C(c1cccs1)N(CCO)Cc1cc2cc3c(cc2[nH]c1=O)OCCO3 | inconclusive: 100 µM [inhibitor, single point] | –
28 | COC(=O)[C@@]1(Cc2ccc(F)cc2)[C@H]2c3cc(C(=O)N4CCCC4)n(CCCNc4ncc(C(F)(F)F)cc4Cl)c3C[C@H]2CN1C(=O)c1ccccc1 | active: 31.6 µM | –
29 | CSCC[C@H](NC(=O)C1CCC(CNC(=O)[C@@H]2CCCN2C(=O)OC(C)(C)C)CC1)C(=O)O (stereo not given in full) | – | inactive: 3.09% [at 102 µM]
30 | CC1=NN(C(N)=S)C(=O)C1N=Nc1ccccc1Cl (stereo not given) | – | inactive: -9.2% [at 0.501 µM]
31 | COc1ccc(CCn2c(-c3ccncc3)n[nH]c2=S)cc1OC | inconclusive: 8.91 µM [inhibitor, full curve, poor fit] | –
32 | COc1ccc(N2CCN(C(=O)CNS(=O)(=O)c3ccc(C)c(C)c3)CC2)cc1 | inconclusive: 44.7 µM [inhibitor, partial curve] | –
33 | CS(=O)(=O)c1cc([N+](=O)[O-])c(Sc2nc3ccccc3[nH]2)c([N+](=O)[O-])c1 | inconclusive: 0.794 µM [inhibitor, partial curve, poor fit] | –
34 | COc1ccc(C)cc1NC(=O)CSc1ccc(-c2sc(C)nc2C)nn1 | – | inactive: -30.5% [at 102 µM]
35 | CCCCn1c(CN2CCN(C)CC2)nc2ccccc21 | inconclusive: 89.1 µM [inhibitor, partial curve, poor fit] | –
36 | O=C(CSc1ncc(C(=O)O)n1-c1ccc(F)cc1)NCc1ccc2c(c1)OCO2 | active: 44.7 µM | –
37 | Cc1ccc(NC(=O)c2c(C)nn(-c3ccccc3)c2Cl)cc1 | inconclusive: 0.708 µM [inhibitor, partial curve, poor fit] | –
38 | CCn1c2ccccc2c2nnc(SCC(=O)N(C)C3CCS(=O)(=O)C3)nc21 (stereo not given) | inconclusive: 31.6 µM [inhibitor, single point] | –
39 | c1ccc(CCSc2ncnc3nc[nH]c23)cc1 | – | inactive: -1.56% [at 102 µM]
40 | O=C(O)c1ccc([N+](=O)[O-])c(CS(=O)(=O)c2ccccc2)c1 | – | inactive: -3.85% [at 102 µM]
41 | C=CCn1c(SCC(=O)Nc2sccc2C(N)=O)nc2sc(CC)cc2c1=O | – | inactive: -4.69%
42 | CC1CC(=O)Nc2ccccc2N1S(=O)(=O)c1ccc(C#N)cc1 (stereo not given) | – | inactive: 10.1% [at 102 µM]
43 | c1ccc2oc(-c3csc(N4CCOCC4)n3)cc2c1 | active: 39.8 µM | –
44 | COc1ccc(CCNC(=O)CCCn2c(=O)c3ccccc3n(CC(=O)Nc3ccc(C)cc3Cl)c2=O)cc1OC | – | inactive: 20.4%
45 | O=C(CSc1ncn(-c2ccccc2)n1)Nc1ccc2c(c1)OCCO2 | inconclusive: 35.5 µM [inhibitor, single point] | –

— PubChem BioAssay AID504332 (National Center for Advancing Translational Sciences (NCATS), 2011)
